According to the supplement of paper PMC8728848:
This is one part of the list.

What was measured:
Test in all cases: glycan array binding signal (z-score within array); higher = stronger binding
Settings in all cases: glycan notation: IUPAC condensed, linker removed
[1] = target: GalNAc(a1-3)GalNAc(b1-3)Gal(a1-4)Gal(b1-4)GlcNAc
How it was run: (§1)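 From the Consortium for Functional Glycomics database, 3228 arrays were curated, keeping only those whose protein sequence was available. Binding is given as a within-array Z-score averaged across arrays sharing a protein sequence and across linkers. Negative Z-scores can be read as non-binding.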

GalNAc(b1-3)Gal = target: GalNAc(b1-3)Gal
How it was run: as §1

[2] = target: GalNAc(b1-3)Gal(a1-4)Gal(b1-4)GlcNAc
How it was run: as §1

[3] = target: GalNAc(b1-3)Gal(a1-4)Gal(b1-4)GlcNAc(b1-3)Gal(b1-4)Glc
How it was run: as §1

[4] = target: GalNAc(b1-3)Gal(a1-6)Gal(b1-4)Glc
How it was run: as §1

GalNAc(b1-3)GalNAc = target: GalNAc(b1-3)GalNAc
How it was run: as §1

GalNAc(b1-3)GlcNAc = target: GalNAc(b1-3)GlcNAc
How it was run: as §1

GalNAc(b1-4)Gal(b1-4)Glc = target: GalNAc(b1-4)Gal(b1-4)Glc
How it was run: as §1

GalNAc(b1-4)GlcNAc = target: GalNAc(b1-4)GlcNAc
How it was run: as §1

[5] = target: GalNAc(b1-4)GlcNAc(b1-2)Man
How it was run: as §1

[6] = target: GalNAc(b1-4)GlcNAc(b1-2)Man(a1-3)[GalNAc(b1-4)GlcNAc(b1-2)Man(a1-6)]Man(b1-4)GlcNAc(b1-4)GlcNAc
How it was run: as §1

[7] = target: GalNAc(b1-4)GlcNAc(b1-3)GalNAc(b1-4)GlcNAc
How it was run: as §1

GalNAc(b1-4)GlcNAc6S = target: GalNAc(b1-4)GlcNAc6S
How it was run: as §1

GalNAc(b1-6)GalNAc = target: GalNAc(b1-6)GalNAc
How it was run: as §1

GalNAc3S(b1-4)GlcNAc = target: GalNAc3S(b1-4)GlcNAc
How it was run: as §1

GalNAc3S(b1-4)GlcNAc3S = target: GalNAc3S(b1-4)GlcNAc3S
How it was run: as §1

[8] = target: GalNAc3S(b1-4)[Fuc(a1-3)]GlcNAc
How it was run: as §1

GalNAc4S6S(b1-4)GlcNAc = target: GalNAc4S6S(b1-4)GlcNAc
How it was run: as §1

GalNAc6S(b1-4)GlcNAc = target: GalNAc6S(b1-4)GlcNAc
How it was run: as §1

Glc(a1-4)Glc = target: Glc(a1-4)Glc
How it was run: as §1

[9] = target: Glc(a1-4)Glc(a1-4)Glc(a1-4)Glc
How it was run: as §1

Glc(a1-6)Glc(a1-6)Glc = target: Glc(a1-6)Glc(a1-6)Glc
How it was run: as §1

[10] = target: Glc(a1-6)Glc(a1-6)Glc(a1-6)Glc
How it was run: as §1

Glc(b1-4)Glc = target: Glc(b1-4)Glc
How it was run: as §1

Glc(b1-6)Glc = target: Glc(b1-6)Glc
How it was run: as §1

GlcA(b1-3)Gal = target: GlcA(b1-3)Gal
How it was run: as §1

GlcA(b1-3)GlcNAc = target: GlcA(b1-3)GlcNAc
How it was run: as §1

GlcA(b1-6)Gal = target: GlcA(b1-6)Gal
How it was run: as §1

[11] = target: GlcA3S(b1-3)Gal(b1-4)GlcNAc(b1-2)Man
How it was run: as §1

[12] = target: GlcA3S(b1-3)Gal(b1-4)GlcNAc(b1-3)Gal(b1-4)Glc
How it was run: as §1

[13] = target: GlcNAc(a1-3)Gal(b1-4)GlcNAc
How it was run: as §1

[14] = target: GlcNAc(a1-4)Gal(b1-3)GlcNAc
How it was run: as §1

[15] = target: GlcNAc(a1-4)Gal(b1-4)GalNAc
How it was run: as §1

[16] = target: GlcNAc(a1-4)Gal(b1-4)GlcNAc
How it was run: as §1

[17] = target: GlcNAc(a1-4)Gal(b1-4)GlcNAc(b1-3)Gal(b1-4)Glc
How it was run: as §1

[18] = target: GlcNAc(a1-4)Gal(b1-4)GlcNAc(b1-3)Gal(b1-4)GlcNAc
How it was run: as §1

[19] = target: GlcNAc(a1-4)Gal(b1-4)GlcNAc(b1-3)Gal(b1-4)GlcNAc(b1-3)Gal(b1-4)GlcNAc
How it was run: as §1

[20] = target: GlcNAc(a1-4)Gal(b1-4)GlcNAc(b1-3)Gal(b1-4)[Fuc(a1-3)]GlcNAc(b1-3)Gal(b1-4)[Fuc(a1-3)]GlcNAc
How it was run: as §1

B1: Gal-9-hFc (Mus musculus), O08573-2 (protein)
chain: MALFSAQSPYINPIIPFTGPIQGGLQEGLQVTLQGTTKSFAQRFVVNFQNSFNGNDIAFHFNPRFEEGGYVVCNTKQNGQWGPEERKMQMPFQKGMPFELCFLVQRSEFKVMVNKKFFVQYQHRVPYHLVDTIAVSGCLKLSFITFQTQNFRPAHQAPMAQTTIHMVHSTPGQMFSTPGIPPVVYPTPAYTIPFYTPIPNGLYPSKSIMISGNVLPDATRFHINLRCGGDIAFHLNPRFNENAVVRNTQINNSWGQEERSLLGRMPFSRGQSFSVWIICEGHCFKVAVNGQHMCEYYHRLKNLQDINTLEVAGDIQLTHVQT
glycan array binding signal (z-score) [1]: -0.363
glycan array binding signal (z-score) (GalNAc(b1-3)Gal): -0.279
glycan array binding signal (z-score) [2]: -0.351
glycan array binding signal (z-score) [3]: -0.251
glycan array binding signal (z-score) [4]: -0.602
glycan array binding signal (z-score) (GalNAc(b1-3)GalNAc): -0.448
glycan array binding signal (z-score) (GalNAc(b1-3)GlcNAc): -0.308
glycan array binding signal (z-score) (GalNAc(b1-4)Gal(b1-4)Glc): 0.615
glycan array binding signal (z-score) (GalNAc(b1-4)GlcNAc): -0.176
glycan array binding signal (z-score) [5]: -0.497
glycan array binding signal (z-score) [6]: 0.338
glycan array binding signal (z-score) [7]: -0.192
glycan array binding signal (z-score) (GalNAc(b1-4)GlcNAc6S): -0.156
glycan array binding signal (z-score) (GalNAc(b1-6)GalNAc): -0.076
glycan array binding signal (z-score) (GalNAc3S(b1-4)GlcNAc): 0.448
glycan array binding signal (z-score) (GalNAc3S(b1-4)GlcNAc3S): -0.064
glycan array binding signal (z-score) [8]: -0.05
glycan array binding signal (z-score) (GalNAc4S6S(b1-4)GlcNAc): -0.079
glycan array binding signal (z-score) (GalNAc6S(b1-4)GlcNAc): -0.416
glycan array binding signal (z-score) (Glc(a1-4)Glc): 0.158
glycan array binding signal (z-score) [9]: -0.126
glycan array binding signal (z-score) (Glc(a1-6)Glc(a1-6)Glc): 0.138
glycan array binding signal (z-score) [10]: 0.251
glycan array binding signal (z-score) (Glc(b1-4)Glc): 0.009
glycan array binding signal (z-score) (Glc(b1-6)Glc): 0.449
glycan array binding signal (z-score) (GlcA(b1-3)Gal): 0.598
glycan array binding signal (z-score) (GlcA(b1-3)GlcNAc): -0.298
glycan array binding signal (z-score) (GlcA(b1-6)Gal): 1.85
glycan array binding signal (z-score) [11]: 0.573
glycan array binding signal (z-score) [12]: 0.664
glycan array binding signal (z-score) [13]: -0.192
glycan array binding signal (z-score) [14]: -0.396
glycan array binding signal (z-score) [15]: -0.234
glycan array binding signal (z-score) [16]: -0.291
glycan array binding signal (z-score) [17]: -0.272
glycan array binding signal (z-score) [18]: -0.186
glycan array binding signal (z-score) [19]: -0.398
glycan array binding signal (z-score) [20]: 1.19
